Results are given in words; binding and its absence hold for the method and conditions named. For part of these data: In cells and extracts the contact can be indirect. Some results given as binding are weak or reduced against the parent protein; the word gives no strength. Sequences can lack the tags named with a protein.
T1: GAL4-BD-CIP1 (S. cerevisiae) (UniProt Q02606)
T1 sequence: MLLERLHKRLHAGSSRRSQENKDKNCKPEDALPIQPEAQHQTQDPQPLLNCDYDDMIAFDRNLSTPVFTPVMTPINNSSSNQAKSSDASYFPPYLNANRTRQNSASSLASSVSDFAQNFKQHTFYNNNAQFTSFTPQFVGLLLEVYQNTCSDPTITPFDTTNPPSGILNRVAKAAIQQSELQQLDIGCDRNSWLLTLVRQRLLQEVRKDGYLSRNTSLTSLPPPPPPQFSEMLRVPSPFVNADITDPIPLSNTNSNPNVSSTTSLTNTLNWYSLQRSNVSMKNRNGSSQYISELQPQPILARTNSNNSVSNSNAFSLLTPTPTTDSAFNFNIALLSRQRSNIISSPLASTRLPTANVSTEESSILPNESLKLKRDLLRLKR

T2: GAL4-BD-CCR4 (S. cerevisiae) (UniProt P31384)
T2 sequence: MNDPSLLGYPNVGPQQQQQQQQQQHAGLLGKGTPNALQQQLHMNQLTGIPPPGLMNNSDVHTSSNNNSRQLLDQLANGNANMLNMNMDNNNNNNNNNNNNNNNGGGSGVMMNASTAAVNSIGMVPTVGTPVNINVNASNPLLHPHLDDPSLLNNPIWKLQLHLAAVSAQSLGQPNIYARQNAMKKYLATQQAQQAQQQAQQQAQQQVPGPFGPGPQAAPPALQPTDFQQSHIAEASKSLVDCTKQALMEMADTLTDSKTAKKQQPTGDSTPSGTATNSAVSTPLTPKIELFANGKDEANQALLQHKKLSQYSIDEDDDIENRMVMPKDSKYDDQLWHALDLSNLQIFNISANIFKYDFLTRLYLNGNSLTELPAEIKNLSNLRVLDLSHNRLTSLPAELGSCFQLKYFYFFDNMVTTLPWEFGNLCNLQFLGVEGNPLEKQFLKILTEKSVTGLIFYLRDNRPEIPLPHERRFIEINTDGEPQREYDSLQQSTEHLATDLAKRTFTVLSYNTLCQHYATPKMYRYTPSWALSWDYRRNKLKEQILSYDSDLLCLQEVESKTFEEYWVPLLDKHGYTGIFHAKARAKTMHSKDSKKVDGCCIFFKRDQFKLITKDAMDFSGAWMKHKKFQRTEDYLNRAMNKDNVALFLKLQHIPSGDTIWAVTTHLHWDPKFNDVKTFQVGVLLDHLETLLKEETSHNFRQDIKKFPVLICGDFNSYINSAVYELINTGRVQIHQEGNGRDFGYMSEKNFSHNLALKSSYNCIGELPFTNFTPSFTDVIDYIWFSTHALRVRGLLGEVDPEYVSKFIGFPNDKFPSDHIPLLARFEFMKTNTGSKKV

T3: Caf120-3HA (S. cerevisiae) (UniProt P53836)
T3 sequence: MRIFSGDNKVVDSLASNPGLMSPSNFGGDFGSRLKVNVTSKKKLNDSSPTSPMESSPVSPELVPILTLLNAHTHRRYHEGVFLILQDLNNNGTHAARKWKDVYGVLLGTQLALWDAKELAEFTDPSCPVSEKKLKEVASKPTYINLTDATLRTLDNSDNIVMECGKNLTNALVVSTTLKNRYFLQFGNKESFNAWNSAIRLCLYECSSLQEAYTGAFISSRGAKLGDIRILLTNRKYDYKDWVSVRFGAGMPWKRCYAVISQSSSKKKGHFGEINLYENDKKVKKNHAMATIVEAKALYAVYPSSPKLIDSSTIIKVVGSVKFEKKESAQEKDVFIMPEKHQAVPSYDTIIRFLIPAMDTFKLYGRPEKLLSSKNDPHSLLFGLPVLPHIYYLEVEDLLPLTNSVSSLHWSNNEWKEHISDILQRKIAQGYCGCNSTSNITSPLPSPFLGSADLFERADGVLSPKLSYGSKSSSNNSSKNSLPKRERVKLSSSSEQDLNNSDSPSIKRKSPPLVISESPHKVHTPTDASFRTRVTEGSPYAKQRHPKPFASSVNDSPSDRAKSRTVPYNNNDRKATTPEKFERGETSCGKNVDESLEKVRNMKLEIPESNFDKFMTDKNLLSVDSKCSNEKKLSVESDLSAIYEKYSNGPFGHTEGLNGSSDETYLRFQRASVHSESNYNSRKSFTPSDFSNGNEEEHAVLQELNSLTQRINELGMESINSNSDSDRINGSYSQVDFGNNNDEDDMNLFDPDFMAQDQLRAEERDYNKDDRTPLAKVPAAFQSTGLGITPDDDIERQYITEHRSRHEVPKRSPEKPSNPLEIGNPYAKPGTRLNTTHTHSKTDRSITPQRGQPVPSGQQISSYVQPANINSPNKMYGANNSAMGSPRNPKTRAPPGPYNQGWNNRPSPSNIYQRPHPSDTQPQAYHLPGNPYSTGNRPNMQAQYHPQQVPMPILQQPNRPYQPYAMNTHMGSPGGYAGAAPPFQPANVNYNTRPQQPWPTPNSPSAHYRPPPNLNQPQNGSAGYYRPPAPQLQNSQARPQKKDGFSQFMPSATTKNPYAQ

T4: Ccr4-3HA (S. cerevisiae) (UniProt P31384)
T4 sequence: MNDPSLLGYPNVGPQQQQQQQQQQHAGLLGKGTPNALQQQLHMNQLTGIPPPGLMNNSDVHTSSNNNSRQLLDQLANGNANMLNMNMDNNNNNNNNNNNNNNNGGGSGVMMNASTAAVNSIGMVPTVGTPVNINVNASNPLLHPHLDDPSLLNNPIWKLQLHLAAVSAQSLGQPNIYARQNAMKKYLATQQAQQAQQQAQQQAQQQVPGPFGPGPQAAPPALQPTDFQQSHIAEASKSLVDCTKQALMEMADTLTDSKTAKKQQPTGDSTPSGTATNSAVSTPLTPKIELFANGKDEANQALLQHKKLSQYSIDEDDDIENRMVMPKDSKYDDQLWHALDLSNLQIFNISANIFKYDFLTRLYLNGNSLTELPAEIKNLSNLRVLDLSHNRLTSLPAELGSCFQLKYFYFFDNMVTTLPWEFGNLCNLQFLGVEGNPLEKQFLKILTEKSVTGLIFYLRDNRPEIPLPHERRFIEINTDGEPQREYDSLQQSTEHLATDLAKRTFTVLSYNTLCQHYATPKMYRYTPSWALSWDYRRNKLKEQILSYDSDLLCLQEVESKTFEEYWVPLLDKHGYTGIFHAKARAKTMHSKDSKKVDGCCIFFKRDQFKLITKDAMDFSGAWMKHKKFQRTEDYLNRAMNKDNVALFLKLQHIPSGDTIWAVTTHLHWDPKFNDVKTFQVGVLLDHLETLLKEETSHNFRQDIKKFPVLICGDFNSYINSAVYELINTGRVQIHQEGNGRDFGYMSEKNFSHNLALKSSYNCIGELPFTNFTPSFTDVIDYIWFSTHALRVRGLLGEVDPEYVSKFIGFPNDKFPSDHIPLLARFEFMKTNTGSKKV


What was measured:
[1] = molecular target: T1, GAL4-BD-CIP1 (S. cerevisiae); experiment: two-hybrid; Gal4-based Matchmaker System 3, strain AH109; growth on SD/-Ade/-His/-Leu/-Trp (4DO) against SD/-Leu/-Trp (2DO), 30°C
[2] = molecular target: T2, GAL4-BD-CCR4 (S. cerevisiae); experiment: as above
[3] = molecular target: T3, Caf120-3HA (S. cerevisiae); experiment: co-IP; anti-HA agarose immunopurification of the 3HA-tagged protein from extracts of exponentially growing yeast; lysis buffer 50 mM Tris-HCl pH 7.8, 150 mM NaCl, 1 mM EDTA, 10% glycerol, 1% Triton X-100; 1 h at 4°C; copurified Cip1-13myc detected with anti-myc
[4] = molecular target: T4, Ccr4-3HA (S. cerevisiae); experiment: as above

| binding [1] | Binder | further results |
| --- | --- | --- |
| binds | GAL4-AD-CAF120 (protein, UniProt P53836 1-1060) MRIFSGDNKVVDSLASNPGLMSPSNFGGDFGSRLKVNVTSKKKLNDSSPTSPMESSPVSPELVPILTLLNAHTHRRYHEGVFLILQDLNNNGTHAARKWKDVYGVLLGTQLALWDAKELAEFTDPSCPVSEKKLKEVASKPTYINLTDATLRTLDNSDNIVMECGKNLTNALVVSTTLKNRYFLQFGNKESFNAWNSAIRLCLYECSSLQEAYTGAFISSRGAKLGDIRILLTNRKYDYKDWVSVRFGAGMPWKRCYAVISQSSSKKKGHFGEINLYENDKKVKKNHAMATIVEAKALYAVYPSSPKLIDSSTIIKVVGSVKFEKKESAQEKDVFIMPEKHQAVPSYDTIIRFLIPAMDTFKLYGRPEKLLSSKNDPHSLLFGLPVLPHIYYLEVEDLLPLTNSVSSLHWSNNEWKEHISDILQRKIAQGYCGCNSTSNITSPLPSPFLGSADLFERADGVLSPKLSYGSKSSSNNSSKNSLPKRERVKLSSSSEQDLNNSDSPSIKRKSPPLVISESPHKVHTPTDASFRTRVTEGSPYAKQRHPKPFASSVNDSPSDRAKSRTVPYNNNDRKATTPEKFERGETSCGKNVDESLEKVRNMKLEIPESNFDKFMTDKNLLSVDSKCSNEKKLSVESDLSAIYEKYSNGPFGHTEGLNGSSDETYLRFQRASVHSESNYNSRKSFTPSDFSNGNEEEHAVLQELNSLTQRINELGMESINSNSDSDRINGSYSQVDFGNNNDEDDMNLFDPDFMAQDQLRAEERDYNKDDRTPLAKVPAAFQSTGLGITPDDDIERQYITEHRSRHEVPKRSPEKPSNPLEIGNPYAKPGTRLNTTHTHSKTDRSITPQRGQPVPSGQQISSYVQPANINSPNKMYGANNSAMGSPRNPKTRAPPGPYNQGWNNRPSPSNIYQRPHPSDTQPQAYHLPGNPYSTGNRPNMQAQYHPQQVPMPILQQPNRPYQPYAMNTHMGSPGGYAGAAPPFQPANVNYNTRPQQPWPTPNSPSAHYRPPPNLNQPQNGSAGYYRPPAPQLQNSQARPQKKDGFSQFMPSATTKNPYAQ |  |
|  | GAL4-AD-CIP1 (protein, UniProt Q02606 1-381) MLLERLHKRLHAGSSRRSQENKDKNCKPEDALPIQPEAQHQTQDPQPLLNCDYDDMIAFDRNLSTPVFTPVMTPINNSSSNQAKSSDASYFPPYLNANRTRQNSASSLASSVSDFAQNFKQHTFYNNNAQFTSFTPQFVGLLLEVYQNTCSDPTITPFDTTNPPSGILNRVAKAAIQQSELQQLDIGCDRNSWLLTLVRQRLLQEVRKDGYLSRNTSLTSLPPPPPPQFSEMLRVPSPFVNADITDPIPLSNTNSNPNVSSTTSLTNTLNWYSLQRSNVSMKNRNGSSQYISELQPQPILARTNSNNSVSNSNAFSLLTPTPTTDSAFNFNIALLSRQRSNIISSPLASTRLPTANVSTEESSILPNESLKLKRDLLRLKR | binding [2]: binds |
|  | Cip1-13myc (protein, UniProt Q02606 1-381) MLLERLHKRLHAGSSRRSQENKDKNCKPEDALPIQPEAQHQTQDPQPLLNCDYDDMIAFDRNLSTPVFTPVMTPINNSSSNQAKSSDASYFPPYLNANRTRQNSASSLASSVSDFAQNFKQHTFYNNNAQFTSFTPQFVGLLLEVYQNTCSDPTITPFDTTNPPSGILNRVAKAAIQQSELQQLDIGCDRNSWLLTLVRQRLLQEVRKDGYLSRNTSLTSLPPPPPPQFSEMLRVPSPFVNADITDPIPLSNTNSNPNVSSTTSLTNTLNWYSLQRSNVSMKNRNGSSQYISELQPQPILARTNSNNSVSNSNAFSLLTPTPTTDSAFNFNIALLSRQRSNIISSPLASTRLPTANVSTEESSILPNESLKLKRDLLRLKR | binding [3]: binds; binding [4]: binds |
| no binding | GAL4-AD-NOT5 (protein, UniProt Q12514 1-560) MSQRKLQQDIDKLLKKVKEGIEDFDDIYEKFQSTDPSNSSHREKLESDLKREIKKLQKHRDQIKTWLSKEDVKDKQSVLMTNRRLIENGMERFKSVEKLMKTKQFSKEALTNPDIIKDPKELKKRDQVLFIHDCLDELQKQLEQYEAQENEEQTERHEFHIANLENILKKLQNNEMDPEPVEEFQDDIKYYVENNDDPDFIEYDTIYEDMGCEIQPSSSNNEAPKEGNNQTSLSSIRSSKKQERSPKKKAPQRDVSISDRATTPIAPGVESASQSISSTPTPVSTDTPLHTVKDDSIKFDNSTLGTPTTHVSMKKKESENDSEQQLNFPPDRTDEIRKTIQHDVETNAAFQNPLFNDELKYWLDSKRYLMQPLQEMSPKMVSQLESSLLNCPDSLDADSPCLYTKPLSLPHPTSIFFPNEPIRFVYPYDVPLNLTNNENDTDNKFGKDSKAKSKKDDDIYSRTSLARIFMKFDLDTLFFIFYHYQGSYEQFLAARELFKNRNWLFNKVDRCWYYKEIEKLPPGMGKSEEESWRYFDYKKSWLARRCGNDFVYNEEDFEKL |  |
| no binding | GAL4-AD-CDC36 (protein, UniProt P06100 1-191) MEKFGLKALVPLLKLEDKELSSTYDHSMTLGADLSSMLYSLGIPRDSQDHRVLDTFQSPWAETSRSEVEPRFFTPESFTNIPGVLQSTVTPPCFNSIQNDQQRVALFQDETLFFLFYKHPGTVIQELTYLELRKRNWRYHKTLKAWLTKDPMMEPIVSADGLSERGSYVFFDPQRWEKCQRDFLLFYNAIM |  |

— publication PMC7363780
